Measurements published in PMC4336329 (PLoS ONE, 2015).
Among all 310,000 compounds or so, about 14,000 (4.5%) showed an effect of 50% or more. The effect is printed as a negative number. This is one part of the list.

Each compound was assayed against human ether-à-go-go-related gene (hERG) potassium channel (human, UniProt Q12809) (assay: primary screen, population patch clamp on CHO cells stably expressing hERG).
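Note: peak tail current of the secondary pulse compared with the same well before compound.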

Chain of human ether-à-go-go-related gene (hERG) potassium channel (Q12809 whole entry, looked up): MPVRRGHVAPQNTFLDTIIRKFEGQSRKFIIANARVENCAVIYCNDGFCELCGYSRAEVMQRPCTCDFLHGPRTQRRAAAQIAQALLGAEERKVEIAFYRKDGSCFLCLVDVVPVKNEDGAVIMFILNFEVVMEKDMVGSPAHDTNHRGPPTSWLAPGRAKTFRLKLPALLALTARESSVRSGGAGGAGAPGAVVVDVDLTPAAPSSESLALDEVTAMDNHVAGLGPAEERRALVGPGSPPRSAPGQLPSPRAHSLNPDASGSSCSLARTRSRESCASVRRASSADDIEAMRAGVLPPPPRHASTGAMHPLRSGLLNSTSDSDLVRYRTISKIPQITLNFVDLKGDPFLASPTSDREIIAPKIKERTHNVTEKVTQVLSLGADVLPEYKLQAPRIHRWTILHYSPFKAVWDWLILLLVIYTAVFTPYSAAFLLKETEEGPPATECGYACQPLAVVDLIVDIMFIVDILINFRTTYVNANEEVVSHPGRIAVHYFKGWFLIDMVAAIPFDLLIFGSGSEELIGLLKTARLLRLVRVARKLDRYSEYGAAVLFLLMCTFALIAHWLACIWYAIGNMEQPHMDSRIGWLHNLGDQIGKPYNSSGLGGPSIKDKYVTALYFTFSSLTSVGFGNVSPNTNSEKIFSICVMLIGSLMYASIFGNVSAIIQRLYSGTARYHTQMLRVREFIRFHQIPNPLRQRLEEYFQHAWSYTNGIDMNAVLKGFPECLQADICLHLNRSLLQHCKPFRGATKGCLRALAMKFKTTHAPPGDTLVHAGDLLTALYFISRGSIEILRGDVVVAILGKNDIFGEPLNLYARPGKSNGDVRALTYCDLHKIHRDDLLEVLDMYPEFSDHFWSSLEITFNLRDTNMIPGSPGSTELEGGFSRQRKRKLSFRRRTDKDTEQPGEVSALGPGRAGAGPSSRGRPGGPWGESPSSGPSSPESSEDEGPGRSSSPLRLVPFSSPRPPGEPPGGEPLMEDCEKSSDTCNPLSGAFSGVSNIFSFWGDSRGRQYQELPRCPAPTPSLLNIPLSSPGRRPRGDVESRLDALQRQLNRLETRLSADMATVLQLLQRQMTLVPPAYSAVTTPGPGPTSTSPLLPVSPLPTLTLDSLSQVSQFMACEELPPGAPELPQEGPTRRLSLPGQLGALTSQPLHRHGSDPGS

In order of falling “hERG current change (%, negative = inhibition) at 10uM” value:
1. Cc1ccc(S(=O)(=O)CC(O)CN2CCCC2=O)cc1 (centres unmarked)  26.2%
2. Cn1nc(OCC(N)=O)ccc1=O  24.8%
3. CC(=O)c1cc(C#N)c(Oc2cccc(C(F)(F)F)c2)nc1C  16.5%
4. Cc1ccc(N2C(=O)/C(=C/c3ccc(CN(CCC#N)S(C)(=O)=O)o3)C(=O)NC2=S)cc1  15.9%
5. Cc1ccc(OCCSc2nc3ccccc3n2CC(=O)O)cc1C  14.6%
6. O=S(=O)(c1ccc2c(c1)C(=NO)c1cc(S(=O)(=O)N3CCCCC3)ccc1-2)N1CCCCC1  12.9%
7. CNc1ccncc1S(=O)(=O)NC  12.5%
8. CCOC(=O)c1noc(C)c1C(=O)Nc1nc(C)cc(C)n1  11.5%
9. O=C(COc1cccc(F)c1)Nc1nc(-c2ccncc2)cs1  10.4%
10. Cc1cc(N2CCOCC2)ccc1/C=C1\NC(=O)N(CC(=O)Nc2ccccc2C)C1=O  9.59%
11. COc1ccc(S(=O)(=O)N2CCOCC2)cc1NC(=O)CN1C(=O)NC2(CCCC2)C1=O  9.31%
12. N#Cc1cc(-c2ccccc2)[nH]c1-c1nccc2ccccc12  8.97%
13. CC1(C)NC(=O)N(CC(O)CN2CCCC2)C1=O (centres unmarked)  7.72%
14. Cc1cccc(CCNc2nc3ccccc3n3nnnc23)c1  6.79%
15. O=C(CSc1n[nH]c(-c2ccccc2F)n1)NCC(=O)Nc1ccc(F)c(F)c1F  6.62%
16. CCC1=[N+]([O-])C(C)(/C(C)=N\O)N(O)C1(C)C (centres unmarked)  6.42%
17. c1ccc(Cc2c[nH]c3ccccc23)cc1  6.17%
18. NS(=O)(=O)c1ccc(NC(=O)c2cccc3ccccc23)cc1  5.59%
19. O=C(NC1CCCC1)C(c1ccccc1)N(C(=O)c1ccno1)c1cccnc1 (centres unmarked)  5.57%
20. O=C(NCC(=O)N1CCC2(CC1)NCCc1[nH]cnc12)c1ccc(Br)cc1  5.49%
21. Cc1c(OCc2nn[nH]n2)ccc2c3c(c(=O)oc12)CCC(C)C3 (centres unmarked)  5.16%
22. Nc1[nH]c(N=NC(=O)c2ccc(Cl)cc2)c2ccccc12  5.16%
23. CCCOc1ccc(C(=O)NC(C)C(=O)O)cc1 (centres unmarked)  4.87%
24. Cc1ccc(NC(=O)C/C(N)=N/OC(=O)Nc2ccc(C)c(Cl)c2)cc1  4.56%
25. O=C(OC(C(=O)NC1CCCCC1)c1ccc(C(F)(F)F)cc1)c1ccco1 (centres unmarked)  4.41%
26. Cc1cc(OCC#N)nc(N)n1  3.69%
27. COC(=O)c1ccc(NC(=O)CSc2ccccc2)cc1  3.37%
28. Cc1ccc(C)c(OCC(=O)N2CCN(c3ncccn3)CC2)c1  2.88%
29. O=C(N/N=C/c1ccccc1Br)c1ccc(CSc2cccc3cccnc23)cc1  2.55%
30. Cc1ccc(C(C)(C)NC(=O)C2CCC(=O)N(CCCN3CCOCC3)C2)cc1 (centres unmarked)  2.36%
31. CC(NC(=O)COC(=O)C1CC2CCCC(C1)C2=O)c1ccccc1 (centres unmarked)  2.23%
32. CCN1CCN(C2CC(=O)NC2=O)CC1 (centres unmarked)  2.12%
33. Cc1cc(N)n(C2CCN(C)CC2)n1  1.99%
34. O=C(NCCCN1CCCC1=O)[C@H](CSCc1ccccc1)N1Cc2ccccc2C1=O  1.78%
35. CCOC(=O)c1sc2nc(-c3cccnc3)ccc2c1N  1.77%
36. Cc1ccc(N2C(=O)[C@@H]3C(C(=O)C(c4ccccc4)c4ccccc4)=NN[C@@H]3C2=O)cc1  -0.905%
37. CC(C)Oc1cccc(C(=O)C2CCCN(C(=O)CCc3cnn(C)c3)C2)c1 (centres unmarked)  -0.965%
38. CCOC(=O)c1ccc(N2CCCCC2)c(NS(=O)(=O)c2cccc(C(F)(F)F)c2)c1  -0.976%
39. CCC(C)(C)n1nnnc1C(c1ccccn1)N1CCN(c2cccc(OC)c2)CC1 (centres unmarked)  -1.13%
40. CC(=O)c1ccc(NS(=O)(=O)c2cccc(C)c2)cc1  -1.86%
41. Cc1noc(C)c1S(=O)(=O)NCc1cccc(Cl)c1  -2.56%
42. COc1ccc(OC)c(NC(=O)CN2C(=O)C3(OCCCO3)c3ccccc32)c1  -4.13%
43. O=C(Nc1ccccc1)N1CCC(O)(c2cccc(C(F)(F)F)c2)CC1  -6.72%
44. CCOc1ccc(NC(=O)CN(C)CC(=O)NC2CCCc3ccccc32)cc1OCC (centres unmarked)  -7.73%
45. O=C1N(CC(=O)N2CCc3ccccc32)CCN1Cc1ccc(Cl)cc1  -11.8%
46. COc1ccc(-c2csc(NC(=O)c3cc(C)oc3C)n2)cc1OC  -14.7%
47. O=C(CSc1nc2ccc([N+](=O)[O-])cc2[nH]1)NC1CCCC1  -19.3%
48. COc1ccc(NS(=O)(=O)c2ccc(C)c(C(=O)NCC(c3cccs3)N3CCOCC3)c2)cc1 (centres unmarked)  -20.3%
49. CCN(CC)C(=O)CSc1nc2sc3c(c2c(=O)n1-c1ccc(C)cc1)CC(C)(C)SC3  -20.3%
50. O=C(COC(=O)c1ccccc1C(=O)c1ccccc1)c1ccco1  -24.6%
51. COc1cc(CNCCCN2CCOCC2)cc(Br)c1OCc1ccc(Cl)cc1.Cl  -35.5%
52. O=C1CN(C(=O)CSc2ccc(-c3ccc(F)cc3)nn2)c2ccccc2N1  -42.5%
53. CC1CC(C)CN(CCOCCSc2ccccc2)C1.O=C(O)C(=O)O (centres unmarked)  -45.1%
54. Cc1ccc(-c2cc(C(F)(F)F)n3nc(C(=O)N4CCN5CCCC5C4)cc3n2)cc1 (centres unmarked)  -48.3%
55. CS(=O)(=O)Nc1ccc(C(=O)Nc2ccccc2C(=O)NCc2ccco2)cc1  -69.2%
56. CC(C)N(CCNCC(O)COc1ccc(C(C)(C)c2ccccc2)cc1)C(C)C.O=C(O)C(=O)O (centres unmarked)  -79%
